This list was built around the results that the source calls inconclusive (neither active nor inactive); the mix of calls is not that of the screen. A potency beside an inconclusive call is a rough fit, not a confirmed value. Activity calls are given as the source filed them. Calls follow the shape of the dose curve; as a rule, active = well fitted cell-killing curve with a large enough effect; inconclusive = small, poorly fitted or top-dose-only effect, or effect the other way; inactive = flat fitted curve, though single readings scatter.
Columns and labels:
Assay in all cases: Primary qHTS to identify gynecologic anti-cancer compounds using libraries of approved drugs and bioactive compounds (AID 1345084); also: nearly all actives have a fitted effect of over 55% in size
[1] = test system: C33A; conditions: Gynecologic cancer cell panel viability, ATPlite luminescence, 48 h; series mostly up to 57.5 µM
Summary of the method: (§1)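 Measured: luminescence after ATPlite addition (15 min, RT). Exposure: 48 h, 37 C, 5% CO2.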

[2] = test system: CAOV3; conditions: Gynecologic cancer cell panel viability, ATPlite luminescence, 48 h; series mostly up to 57.5 µM
Summary of the method: as §1

[3] = test system: CASKI; conditions: Gynecologic cancer cell panel viability, ATPlite luminescence, 48 h; series mostly up to 57.5 µM
Summary of the method: as §1

[4] = test system: Es-2; conditions: Gynecologic cancer cell panel viability, ATPlite luminescence, 48 h; series mostly up to 57.5 µM
Summary of the method: as §1

[5] = test system: HeLa; conditions: Gynecologic cancer cell panel viability, ATPlite luminescence, 48 h; series mostly up to 57.5 µM
Summary of the method: as §1

[6] = test system: Hek293T; conditions: Gynecologic cancer cell panel viability, ATPlite luminescence, 48 h, control line for the selectivity index; series mostly up to 57.5 µM
Summary of the method: as §1

[7] = test system: JEG-3; conditions: Gynecologic cancer cell panel viability, ATPlite luminescence, 48 h; series mostly up to 57.5 µM
Summary of the method: as §1

[8] = test system: OV90; conditions: Gynecologic cancer cell panel viability, ATPlite luminescence, 48 h; series mostly up to 57.5 µM
Summary of the method: as §1
Potency is read from the fitted curve at half-maximal effect; tags tell the direction and shape of the fitted curve.

| SMILES | Potency [1] | Potency [2] | Potency [3] | Potency [4] | Potency [5] | Potency [6] | Potency [7] | Potency [8] |
| --- | --- | --- | --- | --- | --- | --- | --- | --- |
| c1ccc2c(c1)Sc1ccccc1N2CC1CN2CCC1CC2 (configuration not stated) | inconclusive: 31.6 µM [cytotoxic, single point] | inconclusive: 39.8 µM [cytotoxic, single point] | inconclusive: 31.6 µM [cytotoxic, single point] | active: 35.5 µM | inconclusive: 39.8 µM [cytotoxic, single point] | active: 31.6 µM | inconclusive: 39.8 µM [cytotoxic, single point] | active: 28.2 µM |
| COC1CC(O[C@H]2CC[C@]3(C=O)C4CC[C@]5(C)[C@@H](C6=CC(=O)OC6)CC[C@]5(O)[C@@H]4CC[C@]3(O)C2)OC(C)C1O[C@@H]1O[C@H](CO)[C@@H](O)[C@H](O)[C@H]1O (some centres not stated) | active: 0.141 µM | active: 0.501 µM | inconclusive: 0.794 µM [cytotoxic, full curve, poor fit] | active: 0.355 µM | active: 0.355 µM | active: 0.501 µM | inconclusive: 0.631 µM [cytotoxic, full curve, poor fit] | inconclusive: 0.891 µM [cytotoxic, full curve, poor fit] |
| CC(=O)C1CCC2C3CCC4C[C@@H](O)CCC4(C)C3CCC12C (some centres not stated) | inactive |  |  |  |  |  |  |  |
| C/C=C(/C)C(=O)O[C@H]1[C@@H]2[C@H](C)C(=O)O[C@@H]2C[C@@H](C)[C@@H]2C=CC(=O)[C@]21C | inconclusive: 28.2 µM [cytotoxic, single point] | inconclusive: 28.2 µM [cytotoxic, single point] | inconclusive: 12.6 µM [cytotoxic, single point] | inconclusive: 20 µM [cytotoxic, single point] | inconclusive: 14.1 µM [cytotoxic, single point] | inconclusive: 11.2 µM [cytotoxic, single point] |  |  |
| CC1=C[C@H]2O[C@@H]3[C@H](O)[C@@H](O)[C@](C)([C@@]2(CO)C[C@@H]1O)[C@]31CO1 | active: 10 µM | active: 11.2 µM | active: 11.2 µM | active: 10 µM | active: 12.6 µM | active: 2.82 µM | inconclusive: 35.5 µM [cytotoxic, single point] | active: 8.91 µM |
| C[C@]12CC[C@H](O)C[C@@H]1CC[C@@H]1[C@@H]2CC[C@]2(C)[C@@H](C3=CC(=O)OC3)CC[C@]12O | active: 7.94 µM | inconclusive: 28.2 µM [cytotoxic, single point] | inactive | active: 8.91 µM | inconclusive: 28.2 µM [cytotoxic, single point] | inconclusive: 10 µM [cytotoxic, partial curve, poor fit] |  |  |

— PubChem BioAssay (NCATS)
